This note sets out measurements from the supplement of paper PMC10369915.

The other results are listed elsewhere or left out. No stated cut-off is given here; in the data, active = 3.2 or more and inactive = the rest. Most of these values are background signal.
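Further: displayed peptides selected on beads carrying the immobilized SH2 domain, with library peptides lacking any tyrosine serving as negative controls.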

The first assay has as its target SHP2 C-SH2 domain E139D. Nature of the assay: enrichment score (SH2-bound / input frequency) (ratio); bacterial display of known human phosphotyrosine sites (pTyr-Var adds point mutants) read by sequencing; higher = stronger binding; tyrosines were phosphorylated by kinases first. The note with it: peptide library: Human pTyr.
As for TKHIGLVYSGMGPDY [PSA2_HUMAN_76], the enrichment score was inactive: 0.946.

In the case of WSKDINAYNCEEPTE [PRDX6_HUMAN_89], the enrichment score is inactive: 0.969.

As for SKRKGHEYTNIKASL [PTN11_HUMAN_546_YA], the enrichment score was inactive: 2.69.

For the molecule TRSEGSEYEEIPKRR [PRC2A_HUMAN_1094], the enrichment score was inactive: 0.691.

GKLVQIEYALAAVAG [PSA2_HUMAN_24]: the enrichment score was inactive: 0.858.

Regarding DIVDEAIYAFKANVF [ARPC3_HUMAN_47_YA], the enrichment score is inactive: 1.26.

For AQEALDFYGEVRTRD [PTEN_HUMAN_155], the enrichment score is inactive: 0.787.

With AGPRAEEYEFLTPVE [ARHGDIA_HUMAN_156_YA], the enrichment score was inactive: 0.927.

As for DQSRQMKYQSFNEYR [PTGS2_HUMAN_446], the enrichment score is inactive: 0.695.

With NRPPPNAYELFAKGY [PRMT5_HUMAN_297], the enrichment score was inactive: 1.17.

For the molecule VFNMLKKYVRAEQKD [A4_HUMAN_497], the enrichment score is inactive: 1.79.

Take FAFSGGLYGGLPPTH [PP1R8_HUMAN_264]: the enrichment score is inactive: 0.83.

As to GGPGPRVYFQSPPGA [PP14B_HUMAN_29], the enrichment score is inactive: 0.831.

For the molecule AGPRPEEYEFLTPVE [ARHGDIB_HUMAN_153_YA], the enrichment score is inactive: 1.93.

On to VDTDGNGYISFNELN [PLSL_HUMAN_28], for which the enrichment score was inactive: 0.717.

In the case of GYHKDHVYGIHNPVM [PROM1_HUMAN_852], the enrichment score was inactive: 0.824.

In the case of TKHIGLVYSGMGPDA [PSA2_HUMAN_76_YA], the enrichment score is inactive: 0.734.

For SSPDDPNYSLVDDAS [PPIP2_HUMAN_323_YA], the enrichment score was inactive: 0.933.

The target in another assay is SHP2 C-SH2 domain wild-type. The assay is described as above. The note with it: peptide library: Human pTyr.
Take TKHIGLVYSGMGPDY [PSA2_HUMAN_76]: the enrichment score was inactive: 0.932.

Turning to WSKDINAYNCEEPTE [PRDX6_HUMAN_89], the enrichment score is inactive: 0.905.

As for SKRKGHEYTNIKASL [PTN11_HUMAN_546_YA], the enrichment score was inactive: 3.09.

With TRSEGSEYEEIPKRR [PRC2A_HUMAN_1094], the enrichment score is inactive: 0.882.

As for GKLVQIEYALAAVAG [PSA2_HUMAN_24], the enrichment score is inactive: 0.883.

Consider DIVDEAIYAFKANVF [ARPC3_HUMAN_47_YA], for which the enrichment score was inactive: 0.999.

Turning to AQEALDFYGEVRTRD [PTEN_HUMAN_155], the enrichment score is inactive: 0.692.

AGPRAEEYEFLTPVE [ARHGDIA_HUMAN_156_YA]: the enrichment score is inactive: 0.589.

Consider DQSRQMKYQSFNEYR [PTGS2_HUMAN_446], for which the enrichment score was inactive: 0.607.

For NRPPPNAYELFAKGY [PRMT5_HUMAN_297], the enrichment score was inactive: 1.09.

Consider VFNMLKKYVRAEQKD [A4_HUMAN_497], for which the enrichment score was inactive: 1.48.

Consider FAFSGGLYGGLPPTH [PP1R8_HUMAN_264], for which the enrichment score is inactive: 0.92.

GGPGPRVYFQSPPGA [PP14B_HUMAN_29]: the enrichment score was inactive: 0.71.

Regarding AGPRPEEYEFLTPVE [ARHGDIB_HUMAN_153_YA], the enrichment score was inactive: 1.73.

As for VDTDGNGYISFNELN [PLSL_HUMAN_28], the enrichment score is inactive: 0.671.

On to GYHKDHVYGIHNPVM [PROM1_HUMAN_852], for which the enrichment score is inactive: 0.786.

Turning to TKHIGLVYSGMGPDA [PSA2_HUMAN_76_YA], the enrichment score was inactive: 0.603.

As to SSPDDPNYSLVDDAS [PPIP2_HUMAN_323_YA], the enrichment score is inactive: 0.998.

A further assay has as its target SHP2 N-SH2 domain L43F. The assay is described as above. Particulars: peptide library: Human pTyr.
TKHIGLVYSGMGPDY [PSA2_HUMAN_76]: the enrichment score was inactive: 0.946.

Turning to WSKDINAYNCEEPTE [PRDX6_HUMAN_89], the enrichment score was inactive: 0.969.

SKRKGHEYTNIKASL [PTN11_HUMAN_546_YA]: the enrichment score was inactive: 3.04.

Consider TRSEGSEYEEIPKRR [PRC2A_HUMAN_1094], for which the enrichment score was inactive: 1.29.

In the case of GKLVQIEYALAAVAG [PSA2_HUMAN_24], the enrichment score was inactive: 0.816.

On to DIVDEAIYAFKANVF [ARPC3_HUMAN_47_YA], for which the enrichment score was inactive: 1.

With AQEALDFYGEVRTRD [PTEN_HUMAN_155], the enrichment score is inactive: 0.705.

Consider AGPRAEEYEFLTPVE [ARHGDIA_HUMAN_156_YA], for which the enrichment score is inactive: 0.393.

DQSRQMKYQSFNEYR [PTGS2_HUMAN_446]: the enrichment score is inactive: 0.735.

With NRPPPNAYELFAKGY [PRMT5_HUMAN_297], the enrichment score is inactive: 1.04.

On to VFNMLKKYVRAEQKD [A4_HUMAN_497], for which the enrichment score is inactive: 1.36.

Consider FAFSGGLYGGLPPTH [PP1R8_HUMAN_264], for which the enrichment score is inactive: 0.952.

As for GGPGPRVYFQSPPGA [PP14B_HUMAN_29], the enrichment score was inactive: 0.679.

Consider AGPRPEEYEFLTPVE [ARHGDIB_HUMAN_153_YA], for which the enrichment score is inactive: 1.41.

Consider VDTDGNGYISFNELN [PLSL_HUMAN_28], for which the enrichment score was inactive: 0.672.

For the molecule GYHKDHVYGIHNPVM [PROM1_HUMAN_852], the enrichment score is inactive: 0.881.

In the case of TKHIGLVYSGMGPDA [PSA2_HUMAN_76_YA], the enrichment score was inactive: 0.544.

Regarding SSPDDPNYSLVDDAS [PPIP2_HUMAN_323_YA], the enrichment score was inactive: 1.18.

The next assay addresses SHP2 N-SH2 domain T42A. The assay is described as above. The note with it: peptide library: Human pTyr.
Consider TKHIGLVYSGMGPDY [PSA2_HUMAN_76], for which the enrichment score is inactive: 0.955.

In the case of WSKDINAYNCEEPTE [PRDX6_HUMAN_89], the enrichment score was inactive: 1.04.

In the case of SKRKGHEYTNIKASL [PTN11_HUMAN_546_YA], the enrichment score was inactive: 2.78.

On to TRSEGSEYEEIPKRR [PRC2A_HUMAN_1094], for which the enrichment score is inactive: 0.665.

Take GKLVQIEYALAAVAG [PSA2_HUMAN_24]: the enrichment score was inactive: 0.797.

Take DIVDEAIYAFKANVF [ARPC3_HUMAN_47_YA]: the enrichment score is inactive: 1.05.

On to AQEALDFYGEVRTRD [PTEN_HUMAN_155], for which the enrichment score was inactive: 0.646.

For the molecule AGPRAEEYEFLTPVE [ARHGDIA_HUMAN_156_YA], the enrichment score was inactive: 0.813.

With DQSRQMKYQSFNEYR [PTGS2_HUMAN_446], the enrichment score is inactive: 0.6.

Regarding NRPPPNAYELFAKGY [PRMT5_HUMAN_297], the enrichment score was inactive: 0.918.

In the case of VFNMLKKYVRAEQKD [A4_HUMAN_497], the enrichment score is inactive: 1.46.

Turning to FAFSGGLYGGLPPTH [PP1R8_HUMAN_264], the enrichment score is inactive: 1.3.

Regarding GGPGPRVYFQSPPGA [PP14B_HUMAN_29], the enrichment score was inactive: 1.05.

With AGPRPEEYEFLTPVE [ARHGDIB_HUMAN_153_YA], the enrichment score was inactive: 1.24.

For VDTDGNGYISFNELN [PLSL_HUMAN_28], the enrichment score was inactive: 0.702.

For GYHKDHVYGIHNPVM [PROM1_HUMAN_852], the enrichment score is inactive: 0.634.

As for TKHIGLVYSGMGPDA [PSA2_HUMAN_76_YA], the enrichment score was inactive: 0.58.

For SSPDDPNYSLVDDAS [PPIP2_HUMAN_323_YA], the enrichment score was inactive: 0.918.

For the next assay, the target named is SHP2 N-SH2 domain T52S. Described as above. Particulars: peptide library: Human pTyr.
In the case of TKHIGLVYSGMGPDY [PSA2_HUMAN_76], the enrichment score was inactive: 1.03.

With WSKDINAYNCEEPTE [PRDX6_HUMAN_89], the enrichment score is inactive: 1.52.

On to SKRKGHEYTNIKASL [PTN11_HUMAN_546_YA], for which the enrichment score was active: 3.3.

As to TRSEGSEYEEIPKRR [PRC2A_HUMAN_1094], the enrichment score was inactive: 0.558.

In the case of GKLVQIEYALAAVAG [PSA2_HUMAN_24], the enrichment score is inactive: 1.14.

As for DIVDEAIYAFKANVF [ARPC3_HUMAN_47_YA], the enrichment score was inactive: 1.09.

On to AQEALDFYGEVRTRD [PTEN_HUMAN_155], for which the enrichment score is inactive: 0.618.

Take AGPRAEEYEFLTPVE [ARHGDIA_HUMAN_156_YA]: the enrichment score was inactive: 0.741.

As for DQSRQMKYQSFNEYR [PTGS2_HUMAN_446], the enrichment score was inactive: 0.892.

NRPPPNAYELFAKGY [PRMT5_HUMAN_297]: the enrichment score was inactive: 1.18.

With VFNMLKKYVRAEQKD [A4_HUMAN_497], the enrichment score is inactive: 1.61.

As for FAFSGGLYGGLPPTH [PP1R8_HUMAN_264], the enrichment score is inactive: 0.956.

In the case of GGPGPRVYFQSPPGA [PP14B_HUMAN_29], the enrichment score was inactive: 1.06.

For AGPRPEEYEFLTPVE [ARHGDIB_HUMAN_153_YA], the enrichment score is inactive: 1.58.

In the case of VDTDGNGYISFNELN [PLSL_HUMAN_28], the enrichment score was inactive: 0.608.

On to GYHKDHVYGIHNPVM [PROM1_HUMAN_852], for which the enrichment score is inactive: 1.

TKHIGLVYSGMGPDA [PSA2_HUMAN_76_YA]: the enrichment score was inactive: 0.97.

For the molecule SSPDDPNYSLVDDAS [PPIP2_HUMAN_323_YA], the enrichment score was inactive: 1.02.

In the next assay the target is SHP2 N-SH2 domain wild-type. The description is as above. The note with it: peptide library: Human pTyr.
TKHIGLVYSGMGPDY [PSA2_HUMAN_76]: the enrichment score is inactive: 1.33.

Consider WSKDINAYNCEEPTE [PRDX6_HUMAN_89], for which the enrichment score was inactive: 0.974.

In the case of SKRKGHEYTNIKASL [PTN11_HUMAN_546_YA], the enrichment score was active: 3.61.

Take TRSEGSEYEEIPKRR [PRC2A_HUMAN_1094]: the enrichment score was inactive: 0.837.

GKLVQIEYALAAVAG [PSA2_HUMAN_24]: the enrichment score is inactive: 0.958.

With DIVDEAIYAFKANVF [ARPC3_HUMAN_47_YA], the enrichment score is inactive: 1.13.

Take AQEALDFYGEVRTRD [PTEN_HUMAN_155]: the enrichment score was inactive: 0.795.

With AGPRAEEYEFLTPVE [ARHGDIA_HUMAN_156_YA], the enrichment score is inactive: 0.805.

Take DQSRQMKYQSFNEYR [PTGS2_HUMAN_446]: the enrichment score was inactive: 0.788.

As for NRPPPNAYELFAKGY [PRMT5_HUMAN_297], the enrichment score is inactive: 1.28.

As to VFNMLKKYVRAEQKD [A4_HUMAN_497], the enrichment score is inactive: 1.89.

For FAFSGGLYGGLPPTH [PP1R8_HUMAN_264], the enrichment score is inactive: 0.978.

As for GGPGPRVYFQSPPGA [PP14B_HUMAN_29], the enrichment score is inactive: 0.934.

AGPRPEEYEFLTPVE [ARHGDIB_HUMAN_153_YA]: the enrichment score is inactive: 1.15.

On to VDTDGNGYISFNELN [PLSL_HUMAN_28], for which the enrichment score was inactive: 0.795.

As to GYHKDHVYGIHNPVM [PROM1_HUMAN_852], the enrichment score was inactive: 0.751.

TKHIGLVYSGMGPDA [PSA2_HUMAN_76_YA]: the enrichment score is inactive: 0.762.

On to SSPDDPNYSLVDDAS [PPIP2_HUMAN_323_YA], for which the enrichment score is inactive: 1.01.
